Results: PubChem BioAssay AID720709 (National Center for Advancing Translational Sciences (NCATS), 2013)
The whole screen tested about 360,000 compounds, of which about 520 (0.14%) were called active. Inconclusive means that the source gave no clear call. Such entries were picked first, then a sample of the others. Calls follow the shape of the dose curve; as a rule, active = well fitted inhibition curve with a large enough effect; inconclusive = small, poorly fitted or top-dose-only effect; inactive = no such curve, though single readings can be large or run the other way. Potencies of inconclusive entries are left out as doubtful fits. Where a SMILES comes first, the peptide text is derived from it. Bridges are numbered along the chain shown (N, C = ends). [ ]: non-standard residue; d: D form. The star is where a group is joined. X1 = CCC(C)C(N)C1=NC(C(=O)*)CS1; dOrn = NCCC[C@@H](N)C(=O)O

Biological target: Rap guanine nucleotide exchange factor 3 (Homo sapiens) (UniProt O95398)
Test: qHTS for Antagonist of cAMP-regulated guanine nucleotide exchange factor 3 (EPAC1): primary screen; also: nearly all actives have a fitted effect of over 50% in size;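 as to activity change, negative = inhibition: plate controls were vehicle for no effect and positive control for full effect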
Settings: EPAC1 GEF assay, Rap1b-BODIPY-GDP exchange fluorescence; activity change, negative = inhibition: at 115 µM (top of the series)
Potency is read from the fitted curve at half-maximal effect; tags tell the direction and shape of the fitted curve.

Sequence of UniProt O95398 (O95398 whole entry, looked up): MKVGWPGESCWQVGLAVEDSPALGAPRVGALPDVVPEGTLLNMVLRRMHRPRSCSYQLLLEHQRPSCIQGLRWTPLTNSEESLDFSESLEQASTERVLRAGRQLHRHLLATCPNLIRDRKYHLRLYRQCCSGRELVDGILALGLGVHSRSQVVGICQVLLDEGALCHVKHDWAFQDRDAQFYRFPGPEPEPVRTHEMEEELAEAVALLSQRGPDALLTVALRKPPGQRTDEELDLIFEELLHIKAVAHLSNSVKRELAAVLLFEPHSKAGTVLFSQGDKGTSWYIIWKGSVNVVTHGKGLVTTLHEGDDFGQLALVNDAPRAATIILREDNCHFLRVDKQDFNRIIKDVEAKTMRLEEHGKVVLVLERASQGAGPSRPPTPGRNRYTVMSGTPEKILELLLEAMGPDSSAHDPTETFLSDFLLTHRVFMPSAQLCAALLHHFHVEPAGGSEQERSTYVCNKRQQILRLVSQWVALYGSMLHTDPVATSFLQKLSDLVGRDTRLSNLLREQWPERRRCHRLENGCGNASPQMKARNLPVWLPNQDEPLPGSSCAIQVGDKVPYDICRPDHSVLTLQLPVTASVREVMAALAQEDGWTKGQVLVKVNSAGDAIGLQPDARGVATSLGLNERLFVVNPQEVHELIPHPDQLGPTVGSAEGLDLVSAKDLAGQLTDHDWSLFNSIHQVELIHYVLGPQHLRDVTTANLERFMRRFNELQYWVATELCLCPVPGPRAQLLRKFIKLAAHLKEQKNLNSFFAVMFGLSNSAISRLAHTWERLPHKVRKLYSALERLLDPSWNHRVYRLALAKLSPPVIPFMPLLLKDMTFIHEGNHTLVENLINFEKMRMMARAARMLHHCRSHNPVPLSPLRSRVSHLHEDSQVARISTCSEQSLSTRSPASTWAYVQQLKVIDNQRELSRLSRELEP

How did the Potency turn out when `COc1ccc(NC(=O)CN(C)C(=O)c2cc(-c3ccco3)nc3ccccc23)cc1` was run?
Its Potency is inconclusive [inhibitor, partial curve].

With `COc1ccc(OC)c(-c2csc(N(Cc3ccco3)C(=O)c3ccco3)n2)c1` as the compound, how does the Potency read?
The Potency was inconclusive [inhibitor, full curve].

With `CN(CCc1ccccc1)C(=O)c1ccc(NC(=O)Cc2cccc(NC(=O)C3CCN(S(=O)(=O)c4cccc([N+](=O)[O-])c4)CC3)c2)cc1` as the compound, how does the Potency read?
Its Potency is inconclusive [inhibitor, single point].

Which Potency does the source give for `COc1ccc(NC(=O)c2c(N)cnn2C)cc1` here?
Its Potency is inconclusive [inhibitor, full curve, poor fit].

`CC1CCc2[nH]c3ccc(C(=O)N4CCCC(C(F)(F)F)C4)cc3c2C1` (stereo not drawn) was tested. Which Potency did it give?
Its Potency is inconclusive [inhibitor, full curve, poor fit].

How did the Potency turn out when `COCc1cc(=O)n2[nH]c(-c3ccsc3-n3c(C)ccc3C)cc2n1` was run?
Its Potency is inconclusive [inhibitor, partial curve].

Which “activity change, negative = inhibition” value does the source give for `CCOC(=O)[C@]12CCC=C1N(Cc1cccc3ccccc13)C(=O)[C@H](CC(=O)N1CCSCC1)C2` here?
The value was inactive: -10.7%.

For `COc1ccccc1-c1ccc(SCc2ccccc2F)nn1`, which Potency is on record?
The Potency was inconclusive [inhibitor, partial curve].

For `Cc1ccc(-n2nc3c(=O)n(CCCC(=O)NCc4cccc(Cl)c4)nc(C)c3c2C)cc1`, which Potency is on record?
The Potency was inconclusive [inhibitor, single point].

For `CC(=O)C1=C(C)OC(N)=C(C#N)C1c1cccc2ccccc12` (stereo not drawn), which “activity change, negative = inhibition” value is on record?
The value was inactive: -18.2%.

How did the activity change, negative = inhibition turn out when `COc1ccccc1NC(=S)N1CCOCC1` was run?
Its activity change, negative = inhibition is inconclusive: -18.1% [inhibitor].

`CC1CCCN(C(=O)N2c3ccccc3Sc3ccccc32)C1` (stereo not drawn) was tested. Which Potency did it give?
Its Potency is inconclusive [inhibitor, single point].

With `CCOC(=O)N1CCN(C(=O)c2ccc3nc4ccsc4c(=O)n3c2)CC1` as the compound, how does the Potency read?
Its Potency is inconclusive [inhibitor, single point].

With `COc1ccc(NC(=O)c2cc(S(=O)(=O)N3CCc4ccccc43)cn2C)cc1` as the compound, how does the Potency read?
Its Potency is inconclusive [inhibitor, partial curve, poor fit].

How did the Potency turn out when `C/C(=N\NC(=O)c1ccc(O)cc1)c1cccc(NC(=O)c2ccc(Cl)cc2)c1` was run?
The Potency was inconclusive [inhibitor, partial curve].

For `CCN(CC)C(=O)C1=C(C)N(CCCOC)C(=O)C(CC(=O)NCC2CCCCC2)C1` (stereo not drawn), which “activity change, negative = inhibition” value is on record?
The value was inactive: 11.1%.

With `CCN(CC)c1cc2c(c3c1ccn3C)C1CCC2C1` (stereo not drawn) as the compound, how does the Potency read?
Its Potency is inconclusive [inhibitor, single point].

How did the Potency turn out when `NS(=O)(=O)c1cccc(NC(=O)CCCNC(=O)c2ccc(Cl)cc2)c1` was run?
The Potency was inconclusive [inhibitor, single point].

`Cc1cc(C(=O)N2CCC(C(N)=O)CC2)c(C)o1` was tested. Which Potency did it give?
Its Potency is inconclusive [inhibitor, partial curve].

Which Potency does the source give for `C/C(=N\N1C(=O)c2ccccc2NC1c1ccco1)c1ccccc1O` (stereo not drawn) here?
Its Potency is inconclusive [inhibitor, partial curve].

How did the Potency turn out when `O=C(c1ccc2ccccc2c1)N1CCc2ccccc21` was run?
Its Potency is inconclusive [inhibitor, partial curve, poor fit].

How did the “activity change, negative = inhibition” value turn out when `COc1ccc(CN2[C@@H](CC(C)=O)c3ccc(/C=C/C(C)=O)cc3S2(=O)=O)cc1` was run?
The value was inactive: -0.18%.

Which “activity change, negative = inhibition” value does the source give for `O=C(O)c1cc(/C=C/c2ccc(N3CCOCC3)cc2)nc2ccccc12` here?
Its value is inactive: -12.1%.

How did the “activity change, negative = inhibition” value turn out when `Cc1ccc(S(=O)(=O)N2CCc3ccccc3CC2)cc1` was run?
The value was inactive: -17.2%.

`CCC(C)C(N)C1=NC(C(=O)N[C@@H](CC(C)C)C(=O)N[C@H](CCC(=O)[O-])C(=O)N[C@H](C(=O)N[C@H]2CCCCNC(=O)[C@H](CC(N)=O)NC(=O)[C@@H](CC(=O)[O-])NC(=O)[C@H](Cc3cnc[nH]3)NC(=O)[C@@H](Cc3ccccc3)NC(=O)[C@H]([C@@H](C)CC)NC(=O)[C@@H](CCCN)NC2=O)[C@@H](C)CC)CS1.[Zn+2]` (stereo partly drawn) (X1-L[dE]IK[dOrn]I[dF]H[dD]N; lactam 4-C) was tested. Which Potency did it give?
Its Potency is inconclusive [inhibitor, full curve, poor fit].

Which Potency does the source give for `O=C(O)c1cccc(NC(=O)c2ccccc2NC(=O)c2cccc([N+](=O)[O-])c2)c1` here?
Its Potency is inconclusive [inhibitor, full curve, poor fit].

Which Potency does the source give for `Cc1cc(Br)ccc1-n1[nH]c(C)c(C=Nc2cccc3nsnc23)c1=O` here?
Its Potency is inconclusive [inhibitor, single point].

Which Potency does the source give for `COc1cccc(C(=O)/C=C/c2ccc(OCC#N)c(OC)c2)c1` here?
The Potency was active: 22.4 µM.

Which Potency does the source give for `O=C(COc1ccc(Cl)cc1Cl)NC(=O)NC1CCCC1` here?
The Potency was inconclusive [inhibitor, single point].

Which activity change, negative = inhibition does the source give for `CCOc1cc(/C=C/C(=O)OCC(=O)NCC2CCCO2)cc(Cl)c1OC` (stereo not drawn) here?
Its activity change, negative = inhibition is inconclusive: -15.2% [inhibitor].

Which Potency does the source give for `O=C(c1ccco1)N1CCN(C(=S)Nc2cc(F)cc(F)c2)CC1` here?
The Potency was inconclusive [inhibitor, full curve].

How did the Potency turn out when `C/C(=N\NC(=O)c1nnn(-c2nonc2N)c1CN(C)c1ccccc1)c1ccccc1O` was run?
The Potency was inconclusive [inhibitor, partial curve, poor fit].

With `CCN(CC)S(=O)(=O)c1ccc2c(c1)N(CC(=O)NCCCN1CC(C)CC(C)C1)C(=O)CO2` (stereo not drawn) as the compound, how does the “activity change, negative = inhibition” value read?
Its value is inactive: 10.8%.

Which “activity change, negative = inhibition” value does the source give for `O=C(CS(=O)(=O)c1ccc(F)cc1)Nc1nccs1` here?
The value was inactive: -7.54%.

With `O=C(COC(=O)/C=C/c1cccs1)Nc1ccc(F)cc1` as the compound, how does the “activity change, negative = inhibition” value read?
The value was inactive: -1.06%.

How did the “activity change, negative = inhibition” value turn out when `CCOCCCNC(=O)c1ccc2c(c1)ncn2C1CCCC1` was run?
The value was inactive: 2.29%.

How did the Potency turn out when `O=C(NCCCN1CCOCC1)c1ccc(CS(=O)(=O)c2ccc(Br)cc2)o1` was run?
The Potency was inconclusive [inhibitor, partial curve].

`O=C(N/C(=C\c1ccc(-c2ccccc2)o1)C(=O)N1CCOCC1)c1ccccc1` was tested. Which Potency did it give?
Its Potency is inconclusive [inhibitor, partial curve, poor fit].

How did the Potency turn out when `NC(=O)Cn1c(-c2nonc2N)nc2ccccc21` was run?
Its Potency is inconclusive [inhibitor, single point].

`CCOC(=O)N1CCN(C(=O)CSCC(=O)Nc2nc(-c3ccc(C)cc3)cs2)CC1` was tested. Which Potency did it give?
Its Potency is inconclusive [inhibitor, single point].

With `O=C1C2CC=C(Cl)CC2C(=O)N1CCc1c[nH]c2ccccc12` (stereo not drawn) as the compound, how does the “activity change, negative = inhibition” value read?
Its value is inactive: -2.32%.

`Cc1sc(NC(=O)C2CCCC2)c(C#N)c1C` was tested. Which “activity change, negative = inhibition” value did it give?
The value was inactive: 5.05%.

With `CCc1ccccc1NC(=O)CSc1nc2[nH]c(=O)cc(O)c2s1` as the compound, how does the Potency read?
The Potency was inconclusive [inhibitor, partial curve].

For `COc1cc(NC(=O)C/C(C)=N/NC(=O)C(=O)NCCO)c(OC)cc1Cl`, which Potency is on record?
The Potency was inconclusive [inhibitor, partial curve].

With `Cc1cc(C)c2nc(N3C(=O)C(O)=C(C(=O)c4ccco4)C3c3ccc(O)cc3)sc2c1` (stereo not drawn) as the compound, how does the Potency read?
Its Potency is inconclusive [inhibitor, partial curve].

Which Potency does the source give for `COc1ccc(CN2C(=O)c3cccnc3C2Nc2cc(Cl)c(OC)cc2OC)cc1` (stereo not drawn) here?
The Potency was inconclusive [inhibitor, partial curve].

With `Cc1ccc(C(=O)Nc2nc(C)c(C(=O)N(C)C)s2)o1` as the compound, how does the “activity change, negative = inhibition” value read?
The value was inactive: 11.5%.

How did the Potency turn out when `COc1c(O)ccc2c1CN1CCc3cc4c(cc3C1C2)OCO4` (stereo not drawn) was run?
Its Potency is inconclusive [inhibitor, full curve].

With `COc1cc2[nH]c(=S)n(Cc3ccccc3)c(=O)c2cc1OC` as the compound, how does the Potency read?
Its Potency is inconclusive [inhibitor, partial curve, poor fit].

For `CN(C)/C=C/C(=O)c1cnc(-c2ccc(Cl)cc2)s1`, which “activity change, negative = inhibition” value is on record?
The value was inactive: -13.1%.

Which Potency does the source give for `CCOc1cc(NC(=S)NCCCN2CCOCC2)c(OCC)cc1NC(=O)c1ccco1` here?
The Potency was inconclusive [inhibitor, single point].

With `COc1ccc(-c2oc3ccc(N4CCOCC4)cc3c2/C=C/c2ccc(OC)c(OC)c2)cc1` as the compound, how does the Potency read?
Its Potency is inconclusive [inhibitor, single point].

How did the Potency turn out when `O=C1NCCCC1C(=O)N/N=C/c1cc([N+](=O)[O-])ccc1O` (stereo not drawn) was run?
The Potency was inconclusive [inhibitor, partial curve, poor fit].

With `CC(=N\NC(=O)c1ccccc1)/C(=N/O)C(=O)Nc1ccccc1` as the compound, how does the Potency read?
Its Potency is inconclusive [inhibitor, partial curve, poor fit].

Which Potency does the source give for `Cn1c(NCCCO)nc2c(c1=O)C1(CCCCC1)Cc1ccccc1-2` here?
The Potency was inconclusive [inhibitor, partial curve, poor fit].

Which “activity change, negative = inhibition” value does the source give for `CCOC(=O)c1ccc(S(=O)(=O)Nc2cc(S(=O)(=O)N3CCOCC3)ccc2O)cc1` here?
The value was inactive: 12.5%.

For `Cc1ccc(SCc2nn(C)c(Cl)c2C=O)cc1`, which activity change, negative = inhibition is on record?
Its activity change, negative = inhibition is inconclusive: 5.93% [inhibitor].

`CCOC(=O)C1(CC2CC2)CCN(Cc2cnc(-c3ccc(OC)cc3)nc2)CC1` was tested. Which Potency did it give?
Its Potency is inconclusive [inhibitor, single point].

For `NNC(=O)c1ccc(Oc2cc(Cl)cc(Cl)c2)o1`, which “activity change, negative = inhibition” value is on record?
Its value is inactive: 0.697%.

For `C/C(CC(=O)Nc1ccc2ccccc2c1)=N\NC(=O)c1ccc(O)c(O)c1`, which Potency is on record?
Its Potency is inconclusive [inhibitor, partial curve].

For `CCOC(=O)C1CCN(C(=O)c2cccc(S(=O)(=O)N(CC)c3ccccc3)c2)CC1`, which Potency is on record?
The Potency was inconclusive [inhibitor, partial curve, poor fit].

`Cc1c(C(=O)NCCO)sc2nc3n(c(=O)c12)CCC3` was tested. Which Potency did it give?
Its Potency is inconclusive [inhibitor, single point].

`COc1cccc(C(=O)Nc2ccc(S(=O)(=O)Nc3cc(C)nc(C)n3)cc2)c1` was tested. Which Potency did it give?
The Potency was inconclusive [inhibitor, partial curve].
